In the supplement of paper PMC12355420:
Structures can show the parent of a compound that is named as a salt. Some of the results follow. Cut-off read from the data, not from the text of the source: active = 0.5 or less and inactive = the rest. Many values rest on one well or one pass, so single values are uncertain.

Tests used:
Conditions in all cases: 50 µM; 24 h
[1] = test system: HeLa VPS33A reporter cells; assay: relative cell viability (CellMask signal) vs DMSO (fraction of DMSO); higher = less cytotoxic;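 note: primary screen of an FDA-approved drug library in HeLa reporter cells in 96-well format, CellMask signal normalized to DMSO-treated wells set as 1, under 0.5 deemed highly cytotoxic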
[2] = test system: HeLa VPS33A R498W KI + HA-SDC1-FLAG; assay: relative GAG core protein HA-SDC1 amount per cell number vs DMSO (fraction of DMSO); higher = more SDC1 (GAG core protein);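 note: HA-SDC1 level read out by In-Cell Western staining with an anti-HA antibody against the N-terminal tag, screening FDA-approved library drugs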
[3] = test system: HeLa VPS33A KO + NLuc-VPS33A R498W; assay: relative mutant VPS33A R498W amount (NanoLuc luminescence) vs DMSO (fraction of DMSO); HeLa model of a glycosaminoglycan (GAG) storage disease; KI is knock-in and KO knock-out; SDC1 is syndecan 1; higher = higher mutant VPS33A level;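 note: screen of an FDA-approved drug library, NanoLuc luminescence read after lysing the treated cells, taken as a measure of mutant VPS33A protein stability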

Structure (SMILES)	relative cell viability [1]	relative GAG core protein HA-SDC1 amount per cell number [2]	relative mutant VPS33A R498W amount [3]
CCOC(=O)[C@H](CCc1ccccc1)N[C@@H](C)C(=O)N1Cc2ccccc2C[C@H]1C(=O)O [Quinapril HCl]	0.986	inactive: 0.812	1.44
Nc1ccn([C@@H]2O[C@H](CO)[C@@H](O)[C@H]2O)c(=O)n1 [Cytidine]	1.05	inactive: 0.92	0.997
CN1C2CCCC1CC(NC(=O)c1nn(C)c3ccccc13)C2 (stereo not drawn) [Granisetron HCl]	1.26	inactive: 1.39	0.774
Cc1ccc(N(CC2=NCCN2)c2cccc(O)c2)cc1 [Phentolamine Mesylate]	1.13	inactive: 0.68	0.833
NC(=O)c1nc(F)cnc1O	1.3	inactive: 1.04	1.03
COCCCN1CCC(NC(=O)c2cc(Cl)c(N)c3c2OCC3)CC1 [Prucalopride]	1.01	inactive: 0.946	1.38
C=C1[C@H](CO)[C@@H](O)C[C@@H]1n1cnc2c(=O)[nH]c(N)nc21 [Entecavir Hydrate]	1.14	inactive: 0.981	1.27
COc1ccc2c(c1)C(=O)N(CCc1ccc(S(=O)(=O)NC(=O)NC3CCCCC3)cc1)C(=O)C2(C)C [Gliquidone]	0.956	inactive: 0.526	0.566
Nc1nc2[nH]cc(CCc3ccc(C(=O)N[C@@H](CCC(=O)O)C(=O)O)cc3)c2c(=O)[nH]1 [Pemetrexed]	1.12	inactive: 1.34	1.08
C[N+](C)(CCOc1ccccc1)Cc1ccccc1.O=C([O-])c1cc2ccccc2cc1O [Bephenium Hydroxynaphthoate]	1.28	inactive: 0.944	0.604
NCCCCCC(=O)O [(6-)ε-Aminocaproic acid]	0.967	inactive: 0.994	1.13
CN(C)CCOC(C)(c1ccccc1)c1ccccn1 (stereo not drawn) [Doxylamine Succinate]	0.881	inactive: 0.927	1.15
CCC1=C(C)CN(C(=O)NCCc2ccc(S(=O)(=O)NC(=O)N[C@H]3CC[C@H](C)CC3)cc2)C1=O [Glimepiride]	1.15	inactive: 1.03	1.29
NCCCC(O)(P(=O)(O)O)P(=O)(O)O [Alendronate]	0.984	inactive: 0.925	0.983
O=C(CCCN1CC=C(n2c(=O)[nH]c3ccccc32)CC1)c1ccc(F)cc1 [Droperidol]	1.03	inactive: 0.801	1.02
CC1(C)S[C@@H]2[C@H](NC(=O)[C@H](N)c3ccccc3)C(=O)N2[C@H]1C(=O)O [Ampicillin Trihydrate]	0.982	inactive: 1.24	1.3
NC(=O)CC[C@H](N)C(=O)O [L-Glutamine]	1.11	inactive: 1.54	0.725
c1ccc2c(CC3=NCCN3)cccc2c1 [Naphazoline HCl]	1.28	inactive: 0.772	1.14
C=C(c1ccc(C(=O)O)cc1)c1cc2c(cc1C)C(C)(C)CCC2(C)C [Bexarotene]	1.07	active: 0.369	1.46

Structure (SMILES)	relative cell viability [1]	relative GAG core protein HA-SDC1 amount per cell number [2]	relative mutant VPS33A R498W amount [3]
CC(=O)OCC(CCn1cnc2cnc(N)nc21)COC(C)=O [Famciclovir]	1.03	inactive: 0.818	1.37
Cc1ccc(=O)n(-c2ccccc2)c1 [Pirfenidone]	0.994	inactive: 0.702	1.33
OC[C@H]1O[C@H](O[C@]2(CCl)O[C@H](CCl)[C@@H](O)[C@@H]2O)[C@H](O)[C@@H](O)[C@H]1Cl [Sucralose]	1.25	inactive: 0.696	1.02
COC(=O)N[C@H](C(=O)N[C@@H](Cc1ccccc1)[C@@H](O)CN(Cc1ccc(-c2ccccn2)cc1)NC(=O)[C@@H](NC(=O)OC)C(C)(C)C)C(C)(C)C [Atazanavir]	1.26	inactive: 0.719	0.657
C[C@H](Nc1ncnc2nc[nH]c12)c1cc2cccc(Cl)c2c(=O)n1-c1ccccc1	1.05	inactive: 0.873	0.44
O=C1NC(=O)C(c2ccccc2)(c2ccccc2)N1 [Phenytoin]	1.01	inactive: 0.928	1.54
CCC[C@@H]1C[C@@H](C(=O)N[C@@H]([C@H]2O[C@H](SC)[C@H](O)[C@@H](O)[C@H]2O)[C@H](C)Cl)N(C)C1 [Clindamycin]	1.03	inactive: 0.94	1.15
CC(C)CN(C[C@@H](O)[C@H](Cc1ccccc1)NC(=O)O[C@H]1CCOC1)S(=O)(=O)c1ccc(N)cc1 [Amprenavir (agenerase)]	1.12	inactive: 1.01	0.898
OCc1ccc(O[C@@H]2O[C@H](CO)[C@@H](O)[C@H](O)[C@H]2O)cc1 [Gastrodin]	1.02	inactive: 1.04	1.46
CC(C(O)c1ccc(O)cc1)N1CCC(Cc2ccccc2)CC1 (stereo not drawn) [Ifenprodil Tartrate]	0.924	inactive: 0.532	0.796
O=C(O)CSCC(=O)NC1CCSC1=O (stereo not drawn) [Erdosteine]	1.02	inactive: 0.824	1.3
CC(C)[C@H]1CC[C@H](C(=O)N[C@H](Cc2ccccc2)C(=O)O)CC1 [Nateglinide]	1.08	inactive: 0.715	1.38
CNNCc1ccc(C(=O)NC(C)C)cc1 [Procarbazine HCl]	0.998	inactive: 1.32	1.11
Nc1ncnc2c1ncn2[C@@H]1O[C@H](CO)[C@@H](O)[C@H]1O [Adenosine]	1.14	inactive: 0.783	1.64
CC=CC1=C(C(=O)O)N2C(=O)[C@@H](NC(=O)[C@H](N)c3ccc(O)cc3)[C@H]2SC1 [Cefprozil hydrate]	0.961	inactive: 0.848	1.38
C=C[C@H]1CN2CC[C@H]1C[C@@H]2[C@@H](O)c1ccnc2ccc(OC)cc12 [Quinidine]	1.04	inactive: 0.855	1.37
C[C@]12CC[C@@H]3c4ccc(O)cc4CC[C@H]3[C@@H]1C[C@@H](O)[C@@H]2O [Estriol]	1.04	inactive: 0.789	0.811
N[C@@H](C(=O)N[C@@H]1C(=O)N2C(C(=O)O)=C(Cl)CS[C@H]12)c1ccccc1 [Cefaclor]	0.878	inactive: 1.81	1.22
OC[C@@H](O)[C@@H](O)CO [Erythritol]	0.906	inactive: 1.05	1.39

Structure (SMILES)	relative cell viability [1]	relative GAG core protein HA-SDC1 amount per cell number [2]	relative mutant VPS33A R498W amount [3]
CC(=O)OCC(=O)[C@@]12N=C(C)O[C@@H]1C[C@H]1[C@@H]3CCC4=CC(=O)C=C[C@]4(C)[C@H]3[C@@H](O)C[C@@]12C [Deflazacort]	1.06	inactive: 0.897	1.05
O=C(OCc1ccccc1)c1ccccc1 [Benzyl benzoate]	1.01	inactive: 0.866	1.13
O=C(O)c1cccnc1Nc1cccc(C(F)(F)F)c1 [Niflumic acid]	1.34	inactive: 0.911	1.59
NCC[C@H](O)C(=O)N[C@@H]1C[C@H](N)[C@@H](O[C@H]2O[C@H](CN)[C@@H](O)[C@H](O)[C@H]2O)[C@H](O)[C@H]1O[C@H]1O[C@H](CO)[C@@H](O)[C@H](N)[C@H]1O [Amikacin disulfate]	1.24	inactive: 1.54	1.07
O=c1ccc2ccccc2o1 [Coumarin]	1.04	inactive: 0.994	1.35
COC(=O)N[C@H](C(=O)N1CC2(CC2)C[C@H]1c1nc(-c2ccc3c(c2)C(F)(F)c2cc(-c4ccc5[nH]c([C@@H]6[C@H]7CC[C@H](C7)N6C(=O)[C@@H](NC(=O)OC)C(C)C)nc5c4)ccc2-3)c[nH]1)C(C)C [Ledipasvir]	0.577	inactive: 0.722	0.351
CN1CCC(OC(c2ccccc2)c2ccccc2)CC1 [Diphenylpyraline HCl]	1.13	inactive: 1.32	0.437
COc1ccccc1OCC(O)CN1CCN(CC(=O)Nc2c(C)cccc2C)CC1 (stereo not drawn) [Ranolazine 2HCl]	1	inactive: 1.36	1.21
CC1(C)S[C@@H]2[C@H](NC(=O)[C@H](N)c3ccccc3)C(=O)N2[C@H]1C(=O)O [Ampicillin]	1.53	inactive: 0.84	1.16
CCn1c(=O)c2c(nc(/C=C/c3ccc(OC)c(OC)c3)n2C)n(CC)c1=O [Istradefylline (KW-6002)]	1.15	inactive: 1.39	0.694
CCCCc1ncc(/C=C(\Cc2cccs2)C(=O)O)n1Cc1ccc(C(=O)O)cc1 [Eprosartan Mesylate]	0.899	inactive: 1.08	1.28
C[C@H]1[C@H](NC(=O)/C(=N\OC(C)(C)C(=O)O)c2csc(N)n2)C(=O)N1S(=O)(=O)O [Aztreonam]	1	inactive: 0.982	1.24
O=C(Nc1cnn2ccc(N3CCC[C@@H]3c3cc(F)ccc3F)nc12)N1CC[C@H](O)C1	0.98	inactive: 0.943	0.886
Nc1ccc(C(=O)O)cc1 [4-Aminobenzoic acid]	1.23	inactive: 0.744	1.15
COc1cc(/C=C/C(=O)N2CCN(CC(=O)N3CCCC3)CC2)cc(OC)c1OC [Cinepazide maleate]	1.12	inactive: 0.86	1.37
C[C@]12CCC3=C4CCC(=O)C=C4CC[C@H]3[C@@H]1CC[C@@]2(O)CC#N [Dienogest]	1.03	inactive: 0.899	1.22
C=C[C@H]1CN2CC[C@H]1C[C@H]2[C@H](O)c1ccnc2ccc(OC)cc12 [Quinine]	1.11	inactive: 0.651	1.22
Cc1c(OCC(F)(F)F)ccnc1C[S+]([O-])c1nc2ccccc2[nH]1 (stereo not drawn) [Lansoprazole sodium]	1.42	inactive: 0.712	0.571
